Measurements reported in PMC12136788.
Some of the results follow.

T1: UNK ZnF1-3 (human, UniProt Q9C0B0 31-174)
T1 sequence: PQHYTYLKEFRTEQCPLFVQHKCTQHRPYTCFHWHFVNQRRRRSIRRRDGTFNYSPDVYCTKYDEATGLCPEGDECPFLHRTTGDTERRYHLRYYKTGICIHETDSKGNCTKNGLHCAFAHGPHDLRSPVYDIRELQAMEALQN

B1: chr2:180453240:180453241:+_ENSMUSG00000027573_ENSMUST00000029090|mus_hu|FALSE|FALSE (ssRNA)
RNA: GGGAGUUCUACAGUCCGACGAUCAACACAUAGCCCCCUCACACGCAUCCCCCAAAAGCCACACAACCCAGACCAAAGGGAAAACAAAUCAAACUCAAUGCCCUCACACAUGAGCCAUCUUUGAAUUAGGAUUUACAAAUUUAUCAACAGAGGAUUGAGCAUCA
B2: chr6:119226881:119226882:+_ENSG00000111875_ENST00000229595|hu_mus|motif|central (ssRNA)
RNA: GGGAGUUCUACAGUCCGACGAUCUGGGUUUUCCCUUAAUUCUGUUUCAGUGUAUUCAUUAUUUACAUAGUAGCCAACUCGGAUAAAUUCUUGACCUCGGUAGGUGCAAGUAAUCAGAACAACUGUUACCCCCACUGCAUCUGCCAACAGAGGAUUGAGCAUCA
B3: chr16:21666878:21666879:+_ENSG00000197006_ENST00000396014|hu_hu|FALSE|FALSE (ssRNA)
RNA: GGGAGUUCUACAGUCCGACGAUCUUUAAAAACAUUCCUUUACACACUACAAAGAAAUAAUUAGUAUUUUGGCUUUUUAAAUUCCUACAUGAUAUUUAGAAUGGCGGUCCCCAAGGGUCCUCCCUUCACGUAAUUGUGAACACACAACAGAGGAUUGAGCAUCA
B4: chr20:17594467:17594468:-_ENSG00000125844_ENST00000246043|hu_hu|motif|central (ssRNA)
RNA: GGGAGUUCUACAGUCCGACGAUCUUGAGAACUGGCUGCCCGGUCCCACCCGCUUCCCGCCCCGCCCCACUGAAAAAACACGGAACGAUUGCACUGACAGACAGACCCCAGAGCGCCCGGCCUCCCACACACCCACGGGGCUGUCAACAGAGGAUUGAGCAUCA
B5: chr15:38777322:38777323:+_ENSG00000171262_ENST00000397609|hu_mus|motif|central (ssRNA)
RNA: GGGAGUUCUACAGUCCGACGAUCUCAACCUAUUUUUCAAAAAGGACAACUGACUAUGCACAUAUAUUAGACACUUCCUCGGUUUUGUAAAAUAGAAUUAACAAUACAGGGCAGAUCCACAGGUAUACAAAUGACAUGAGAGUCCAACAGAGGAUUGAGCAUCA
B6: 138611613_138613062_648_5pUTR_ENSMUSG00000029730_ENSMUST00000000505|mouse|control|control (ssRNA)
RNA: GGGAGUUCUACAGUCCGACGAUCCUUAACUUUUUCUUUUUCGAUCGCGUAGUCCUUAAGCGCCAUCGCUGCCGGGGACGGUGUGGCAGGACUUGAAGGGCUCAAAAAUCUCUCUCUGGGGAAGCAGAAAACGAACGCGCGGCGCAACAGAGGAUUGAGCAUCA
B7: chr19:16212804:16212805:+_ENSG00000167460_ENST00000300933|hu_mus|hu_hu_hu_mus_False|8_48 (ssRNA)
RNA: GGGAGUUCUACAGUCCGACGAUCAACAAUUCUGGAGUGAAGGAAAGAUGUAACAUGGAACAGCAUUAAAGCUCAGUCAGAAGGCACGUGGGUAAUUAUGAUCACCCCAGCAUUCUCGCUUGGAAUGUGCUUGAGAAAUCUGUUCAACAGAGGAUUGAGCAUCA
B8: chr14:76904430:76904431:+_ENSMUSG00000022010_ENSMUST00000022587|mus_mus|mus_mus_mus_hu_True|58_58 (ssRNA)
RNA: GGGAGUUCUACAGUCCGACGAUCUGCAGCCAAAAACACCCUCGUGGAAAAAAAGAGGGAACACCAGCAGCCUUGUACAAACUAGAUAAAAUCUUCUGGCUUUCCGCAGCCCAGGGAGAAACAGAAAACGGCAGCCCUAAUUUACAACAGAGGAUUGAGCAUCA
B9: chr18:48606039:48606040:+_ENSG00000141646_ENST00000342988|hu_hu|FALSE|FALSE (ssRNA)
RNA: GGGAGUUCUACAGUCCGACGAUCACAUAUUGUGUCUGUGGUACAGUCAAUACAUCUGCAACUUUUCUACUUAAAUUCUCUAUACAAAGUCACUGCCAAUUGAUAUGAUCAUUGAUGGCAAAGGGCUUAGAAUAACCAAAAGAUCAACAGAGGAUUGAGCAUCA
B10: chr1:220276048:220276049:+_ENSG00000067704_ENST00000302637|hu_hu|hu_hu_hu_mus_True|1_68 (ssRNA)
RNA: GGGAGUUCUACAGUCCGACGAUCGCAAAUUGCCUGGUUGGCGGGAAUUGUCCAAGGCUGGGUGGUCCAGACCAAAACGCUAACAGGGGAUGAGGCAUCUGUAAGAGACUCCAACUUCGGAGGAGGUCUCAGGAGGGGAAAUUUCAACAGAGGAUUGAGCAUCA
B11: chr10:89574256:89574257:-_ENSG00000138138_ENST00000328142|hu_mus|FALSE|FALSE (ssRNA)
RNA: GGGAGUUCUACAGUCCGACGAUCCUGAGCUUCUACCUUCUGCUUCCUGGUGGGGUCAAUGGCAUCUACCAUCCAUUUAAUAGUGAAGUACGUUACUGCACCAAAUAUUGUUAAACGGAAAAUUAAACCGACAACUUCAUUCCGCAACAGAGGAUUGAGCAUCA
B12: chr3:179342097:179342098:+_ENSG00000136521_ENST00000259037|hu_mus|FALSE|FALSE (ssRNA)
RNA: GGGAGUUCUACAGUCCGACGAUCAGUUCCUGAAUAUUCACAGGACCGCUGCACCUUCCACCUGCCAGACAACGGCAUCAGCAGCUUAUCAACAGUGUCACUUUAGGAAUUCACAACUUCCCAGACCUCCAGGUUUCAUUACUACAACAGAGGAUUGAGCAUCA
B13: chr14:32000333:32000334:-_ENSMUSG00000021910_ENSMUST00000168206|mus_hu|motif|central (ssRNA)
RNA: GGGAGUUCUACAGUCCGACGAUCGUCCCGGAGAUCCAGGUUGACCAGUGAGUAGAGCUUGUGCAGGCCACUCAGACUCUCGGGGAGGUUGCCUGCCAGGUUUAAGGUCUUGAUGUUCCCCAGCUUGGUGUGAAGCCCUUCCAACAACAGAGGAUUGAGCAUCA
B14: chr2:5814250:5814251:-_ENSMUSG00000025816_ENSMUST00000102981|mus_hu|mus_mus_mus_hu_True|28_58 (ssRNA)
RNA: GGGAGUUCUACAGUCCGACGAUCUUCCUUUCCGGUUUCUGAAUUUCUGGUAGAACUGCACAGAAUGGUUUGAUAACUUCUAAAAACUUGAUGCCCAUGGCUGCUGCUCAGCACACCCAGGGGGAAACCGCGGCCUCGGCGCUGCAACAGAGGAUUGAGCAUCA
B15: 2404108_2406015_1217_CDS_ENSG00000106263_ENST00000360876|human|control|control (ssRNA)
RNA: GGGAGUUCUACAGUCCGACGAUCCCAGAUGAUUAUGGCCUGAGGGUCAUCCUGCGUGUCCAUCAGGGGGCUAAAGGUCACCAGGUACCUUUCACAAGGUGAGAAGUCAAUAAGCUGAACCCCUUGGUGGCUGAAUCUCUGAAUCAACAGAGGAUUGAGCAUCA
B16: chr13:100193275:100193276:-_ENSMUSG00000052727_ENSMUST00000064762|mus_hu|FALSE|FALSE (ssRNA)
RNA: GGGAGUUCUACAGUCCGACGAUCGUUUUCUUCCCACGCAUUAUGUAGACCAAUUCAACUUAAGAGCUAACCAUUAAAUAAUUAUCUUGAGUAUCUUAGGUUGUGUUAUAAAAUAAAUUUGAAGUAGAUGAGUUUAUACUCAAUCAACAGAGGAUUGAGCAUCA
B17: chr1:78194255:78194256:-_ENSG00000077254_ENST00000357428|hu_mus|FALSE|FALSE (ssRNA)
RNA: GGGAGUUCUACAGUCCGACGAUCAUUGCUGUCCUCAGGAAAGCCUUUGGAGCCACUCUCAUUUUCUGCUUUCUCGCUGCUGCUACAAGACUCGCACGACUGAAAAUCCACAUCUGACUGGCUCUUCUCUUCCUCCACCGUCUCCAACAGAGGAUUGAGCAUCA
B18: chr1:39494564:39494565:+_ENSG00000168653_ENST00000372967|hu_hu|hu_hu_hu_mus_True|1_18 (ssRNA)
RNA: GGGAGUUCUACAGUCCGACGAUCAUGCAUUCGCCUCAUCGUUUUGUACCGAAGCAAGCACUCUUCGAAGUCAUCGAACUCUAUCUUGCACUCCUUUUUCGCCCGGGUCCCACCGAUUCCAUGUGCACACUCUAUCCAUUCUUUCAACAGAGGAUUGAGCAUCA
B19: chr5:71490253:71490254:+_ENSG00000131711_ENST00000296755|hu_hu|FALSE|FALSE (ssRNA)
RNA: GGGAGUUCUACAGUCCGACGAUCCUUGAUGUUUGGCUCUGGAUUUUUGAGAUUUUCAGGUACAUUGAGAAAUACAACUCCUAAGUCAGGGGAGAUGAGGUUUUUCAUCCAGUCACUAUUUGUGGUGGAGCCCUGGGACUGUUCCAACAGAGGAUUGAGCAUCA
B20: chr7:138125181:138125182:+_ENSMUSG00000006205_ENSMUST00000006367|mus_mus|motif|central (ssRNA)
RNA: GGGAGUUCUACAGUCCGACGAUCGAUGCCCGCCGUCACCUUCAAGGUGUUAAUCCCAAUCACCUCGCCAUCCAGGUUUACGGACGGGCCUCCGGAAUUUCCAUAAUUGAUGAUAGCGUCUGUCUGAAUGUAGUCCAUAUCGGACAACAGAGGAUUGAGCAUCA
B21: chr5:138699528:138699529:+_ENSG00000120727_ENST00000265192|hu_hu|FALSE|FALSE (ssRNA)
RNA: GGGAGUUCUACAGUCCGACGAUCGUCAUCUUCAUGAGAAUGACCGUUAAUAAUCACAUCUUCAUUGAUGAUGCUUGGGCUAGUACUGCUGCGACUUGGAUCUUUCAUGGCUGAUGUUGGUUGUCGUUUUUAACCCAAUGCACACAACAGAGGAUUGAGCAUCA
B22: chr7:44244176:44244177:+_ENSG00000106636_ENST00000223369|hu_mus|hu_hu_hu_mus_False|18_58 (ssRNA)
RNA: GGGAGUUCUACAGUCCGACGAUCACUGUCGCUCCGGACGUAGACAUGGCAAAGAUACUCUUGUUCUUUGACAGAAGCUCUAGUGCCUUUCCCCGAGCGUUCCACAAUCAGUUGACUCGUGAAGGUCAUGAAUUCCUGCACACUCAACAGAGGAUUGAGCAUCA

What follows are binders tested against T1, UNK ZnF1-3 (assay: nsRBNS (natural sequence RNA bind-n-seq); RBNS binding buffer (assumed for nsRBNS): 25 mM Tris pH 7.5, 150 mM KCl, 3 mM MgCl2, 0.01% Triton X-100, 500 ug/ml BSA, 20 U/ml SUPERase-In, 4 C; UNK is unkempt and MSI1 is Musashi-1; names of the RNAs are library labels; protein concentration not given here; high values mean tight binding).
B1 was tested, and the binding signal was 1.87 enrichment R.
For B2, the binding signal was 0.872 enrichment R.
Work on B3 yielded a binding signal of 0.916 enrichment R.
For B4, the binding signal was 0.942 enrichment R.
With B5 the binding signal was 0.894 enrichment R.
B6 showed a binding signal of 1 enrichment R.
With B7 the binding signal was 1.18 enrichment R.
B8 was tested, and the binding signal was 2.26 enrichment R.
B9 gave a binding signal of 0.795 enrichment R.
With B10 the binding signal was 1.58 enrichment R.
Binder B11 has a binding signal of 1.26 enrichment R.
Work on B12 yielded a binding signal of 1.13 enrichment R.
In the case of B13, the binding signal is reported as 0.833 enrichment R.
B14 was tested, and the binding signal was 0.976 enrichment R.
B15 gave a binding signal of 0.415 enrichment R.
B16 was tested, and the binding signal was 1.58 enrichment R.
B17 gave a binding signal of 0.818 enrichment R.
B18 showed a binding signal of 0.61 enrichment R.
With B19 the binding signal was 0.783 enrichment R.
B20 showed a binding signal of 0.641 enrichment R.
B21 gave a binding signal of 0.46 enrichment R.
B22 gave a binding signal of 0.517 enrichment R.
